Assay results published in PubChem BioAssay AID886 (National Center for Advancing Translational Sciences (NCATS), 2007).
Screen size: about 73,000 compounds; about 2,500 (3.4%) were called active. The shares of active, inactive and inconclusive entries below differ from those in the screen. Calls follow the shape of the dose curve; as a rule, active = well fitted inhibition curve with a large enough effect; inconclusive = small, poorly fitted or top-dose-only effect; inactive = no such curve, though single readings can be large or run the other way. Potencies of inconclusive entries are doubtful fits and often do not repeat.

biological target: 3-hydroxyacyl-CoA dehydrogenase type-2 (Homo sapiens) (UniProt Q99714); test: qHTS Assay for Inhibitors of HADH2 (Hydroxyacyl-Coenzyme A Dehydrogenase, Type II); conditions: recombinant HADH2, NADH fluorescence, beta-hydroxybutyryl-CoA; activity change, negative = inhibition: at 57.1 µM (top of the series); also: nearly all actives have a fitted effect of over 60% in size
Chain of UniProt Q99714 (Q99714 whole entry, looked up): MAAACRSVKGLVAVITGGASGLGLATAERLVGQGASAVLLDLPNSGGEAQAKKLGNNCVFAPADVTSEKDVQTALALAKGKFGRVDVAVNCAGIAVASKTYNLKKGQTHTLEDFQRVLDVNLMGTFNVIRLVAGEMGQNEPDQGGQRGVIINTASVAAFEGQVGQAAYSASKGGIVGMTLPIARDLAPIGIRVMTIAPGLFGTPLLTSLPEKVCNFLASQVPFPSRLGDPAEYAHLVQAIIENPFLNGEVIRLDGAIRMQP
Chain of UniProt Q99714 (Q99714 whole entry, looked up): as above
Outline: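 NADH fluorescence (ex 360/em 450 nm) read every 30 s for 4 min; activity taken as last-minus-first time point difference. Enzyme 20 nM, NAD+ 1 mM, beta-hydroxybutyryl-CoA 90 uM, pH 9.0 Tris buffer.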
% is scaled to controls: 0 for no effect and ±100 for the full control effect; potency is read from the fitted curve at half-maximal effect; tags tell the direction and shape of the fitted curve.

SMILES | Potency | activity change, negative = inhibition
COc1ccc(NC(=O)N2CCC3(CC2)CCN(S(=O)(=O)c2ccccc2)CC3)cc1 | inactive | 
c1ccc(CCn2nnnc2C(c2cccs2)N2CCN(Cc3ccc4c(c3)OCO4)CC2)cc1 (stereo not drawn) | inactive | 
CCOc1nc(-c2ccc(C)cc2)ccc1-c1noc(COC)n1 | inconclusive: 39.8 µM [inhibitor, single point] | 
CCCCCCCCCCCCCCCC(=O)C(F)(F)F | inconclusive: 39.8 µM [inhibitor, single point] | 
COc1cc2c(cc1NCc1ccccn1)oc1ccccc12 | inconclusive: 5.01 µM [inhibitor, full curve] | 
CCCCn1nnc(NC(=O)CC23CC4CC(CC(C4)C2)C3)n1 | inconclusive: 39.8 µM [inhibitor, single point] | 
Cc1noc(C)c1C(=O)N1CCC2(CC1)CCN(c1ccccn1)CC2 | inconclusive: 39.8 µM [inhibitor, single point] | 
CNc1ncncc1-c1ccccc1OC | inconclusive: 39.8 µM [inhibitor, single point] | 
c1csc(-c2nn3c(C4COc5ccccc5O4)nnc3s2)c1 (stereo not drawn) | active: 1.58 µM | 
OCc1cn(-c2ccccc2)nc1-c1ccc(-c2nn(-c3ccccc3)cc2CO)cc1 | inconclusive: 39.8 µM [inhibitor, single point] | 
CCCCCCCCCCCC1=C(O)C(=O)C=C(O)C1=O | inconclusive: 39.8 µM [inhibitor, single point] | 
O=C(Cc1ccc(F)cc1)OCC(=O)c1cc2ccccc2o1 | inconclusive: 0.631 µM [inhibitor, partial curve] | 
COc1ccc2nc3oc(C(=O)N4CCCCC4)cc3cc2c1 | inconclusive: 39.8 µM [inhibitor, single point] | 
COc1ccc2cc(CCNC(=O)c3c(-c4ccccc4Cl)noc3C)c(=O)[nH]c2c1 | inconclusive: 6.31 µM [inhibitor, single point] | 
Cc1cc2oc(=O)cc(C)c2cc1NC(=O)CCC(=O)O | active: 25.1 µM | 
CCCCNc1nc(C)nc2c1nc(-c1ccccc1)n2CCCN(CC)CC | inconclusive: 39.8 µM [inhibitor, single point] | 
COc1ccc(CCNc2ncnc3nc[nH]c23)cc1OC | inconclusive: 31.6 µM [inhibitor, single point] | 
Cc1cccc(CNc2ncnc3ccc(-c4cccc(C#N)c4)cc23)c1 | inconclusive: 39.8 µM [inhibitor, single point] | 
CCc1c(C)[nH]c(=S)c(C#N)c1C | inconclusive: 39.8 µM [inhibitor, single point] | 
COCCn1c(=O)c(-c2ccccc2)nc2cncnc21 | inactive | 
Cn1cccc1C(=O)OCC(=O)Nc1cc(C(C)(C)C)nn1-c1ccccc1 | inconclusive: 5.01 µM [inhibitor, single point] | 
Oc1cc(O)c2c(c1)O[C@@H](c1ccc(O)c(O)c1)[C@H](O[C@@]1(c3cc(O)c(O)c(O)c3)Oc3cc(O)cc(O)c3[C@H](O)[C@@H]1O)C2 | active: 0.631 µM | 
O=C(c1c[nH]c2ccc(S(=O)(=O)N3CCOCC3)cc2c1=O)N1CCCC1 | active: 12.6 µM | 
CCCCn1c(=S)[nH]c2c(oc3ccc(Cl)cc32)c1=O | inconclusive: 6.31 µM [inhibitor, partial curve] | 
C[C@@]1(O)C(O)[C@@H](CO)O[C@H]1n1cnc2c(NC3CCCC3)nc(Cl)nc21 (stereo partly drawn) | inactive | 

SMILES | Potency | activity change, negative = inhibition
CC1(C)CC(=O)C2=C(C1)N(c1ccccc1)C(N)=C(C#N)C2c1cccnc1 (stereo not drawn) | inconclusive: 39.8 µM [inhibitor, single point] | 
CCCCC(NC(=O)c1ccc(Cl)cc1)C(=O)O (stereo not drawn) | inactive | 
CC(C)=CCC/C(C)=C/CC/C(C)=C/CSc1ccccc1C(=O)O | inconclusive: 6.31 µM [inhibitor, single point] | 
[O-][N+]1=c2ccc(Nc3ccccc3)cc2=NC12CCCCC2 | inconclusive: 12.6 µM [inhibitor, partial curve] | 
CN(C)c1ccc(C=Nc2ccc(N(C)C)cc2)cc1 | inconclusive: 10 µM [inhibitor, partial curve] | 
CCCC12CN3CC(C)(CN(C1)C3c1ccc(OC)cc1)C2=O (stereo not drawn) | inconclusive: 39.8 µM [inhibitor, single point] | 
Cc1oc2c(CN3CCCC3)c(O)ccc2c(=O)c1-c1ccccc1 | active: 31.6 µM | 
Cn1c(C(=O)NCC2CCCO2)cc2c(=O)n3ccccc3nc21 (stereo not drawn) | active: 25.1 µM | 
O=C(Nc1ccccc1C(=O)N1CCN(c2ccccc2)CC1)c1ccco1 | inactive | 
COc1ccc(C(=O)N2CCC3(CC2)CN(c2ncccn2)C3)cc1 | inconclusive: 39.8 µM [inhibitor, single point] | 
CCOCCCNC(=O)C1CCN(S(=O)(=O)c2c(C)noc2/C=C\c2ccc(OC)cc2)CC1 | active: 25.1 µM | 
COc1ccc(-n2nc3cc(C)c(N)c(Br)c3n2)cc1 | active: 7.94 µM | 
Cc1ccc(C2CC(=O)N3CN(c4ccc(Br)cc4)CSC3=C2C#N)o1 (stereo not drawn) | active: 7.94 µM | 
COC(=O)C1=C(N)Oc2cc(C)n(CC3CCCO3)c(=O)c2C1c1ccccc1OC (stereo not drawn) | inactive | 
c1ccc(-n2ncc3c(NCc4cccs4)ncnc32)cc1 | inconclusive: 31.6 µM [inhibitor, single point] | 
C=CCn1c(N)c(C(=O)NCc2cccnc2)sc1=S | inconclusive: 31.6 µM [inhibitor, single point] | 
O=C1CC(c2ccccc2)Cc2nc(NCc3ccco3)ncc21 (stereo not drawn) | active: 31.6 µM | 
O=C(O)c1cccc(C(=O)O)c1S(=O)Cc1ccccc1 (stereo not drawn) |  | inactive: -0.781% [at 11.4 µM]
O=C(CCNS(=O)(=O)c1cccc2nsnc12)NC1CCCc2ccccc21 (stereo not drawn) | inactive | 
Cc1cc(N2CCOCC2)n2nc(-c3cccc(F)c3)cc2n1 | inconclusive: 31.6 µM [inhibitor, single point] | 
c1ccc(CSCc2cn3ccsc3n2)cc1 | inconclusive: 39.8 µM [inhibitor, single point] | 
O=C1c2ccccc2NC(c2ccco2)N1O (stereo not drawn) | inactive | 
CCCc1cc(C(=O)Nc2sc3c(c2C#N)CCC3)no1 | active: 15.8 µM | 
O=C(CSc1nnc(CNC(=O)c2ccccc2F)o1)c1ccccc1 | inconclusive: 12.6 µM [inhibitor, partial curve] | 
CN1C=CC2=C(C#N)C(N)C(C#N)(C#N)C(c3ccccc3)C2C1 (stereo not drawn) | inconclusive: 39.8 µM [inhibitor, single point] | 

SMILES | Potency | activity change, negative = inhibition
c1coc(-c2nc3nc4ccccc4nc3n2CC2CCCO2)c1 (stereo not drawn) | active: 3.16 µM | 
CCOC(=O)C1=C(C)S/C(=C\N(C)C)C1=O | inconclusive: 39.8 µM [inhibitor, single point] | 
COCCn1c(N)c(S(=O)(=O)c2cccs2)c2nc3ccccc3nc21 | inconclusive: 39.8 µM [inhibitor, single point] | 
O=C1CNC(=O)/C1=C\N1CCN(C(c2ccccc2)c2ccccc2)CC1 | inconclusive: 12.6 µM [inhibitor, partial curve] | 
Cc1ccc(-c2nc(C#N)c(NCc3cccc4c3OCO4)o2)cc1 | inconclusive: 25.1 µM [inhibitor, single point] | 
CCOC(=O)Nc1c(C(=O)OC)[nH]c2cc(OC)ccc12 | inconclusive: 10 µM [inhibitor, partial curve] | 
Cc1ccc(-n2nc(C)c3c2OC(N)=C(C#N)C3c2ccco2)cc1 (stereo not drawn) | inconclusive: 20 µM [inhibitor, partial curve] | 
C/C(CCN1CCc2nc(-c3ccccc3)c(-c3ccccc3)cc2C1)=N\OC[C@@H](O)[C@@H]1O[C@@H]2OC(C)(C)O[C@@H]2[C@H]1O |  | inactive: 10.8% [at 11.4 µM]
COc1ccccc1NC(=O)CN1C(=O)CCS(=O)(=O)c2ccccc21 | inconclusive: 20 µM [inhibitor, partial curve] | 
COCCn1c(=O)c(-c2cccc(C#N)c2)nc2cnc(N(C)C)nc21 | inactive | 
O=c1[nH]cnc2nc(-c3ccccc3)c(-c3ccccc3)nc12 | active: 31.6 µM | 
Cc1ccc(C)n1-c1cccc(N)c1 | inactive | 
COC(=O)c1c(NC(=O)CCc2ccc(C)o2)sc(C)c1C | inconclusive: 31.6 µM [inhibitor, single point] | 
c1cc2c3c(c1)c1c(n3CCNC2)CCCC1 | inconclusive: 39.8 µM [inhibitor, single point] | 
COc1cccc(-c2cc3nc(-c4ccccc4)cc(N4CCC5(CC4)OCCO5)n3n2)c1 | active: 31.6 µM | 
CCn1c(=O)c(C(=O)Nc2cnccn2)c(O)c2ccccc21 | inconclusive: 0.01 µM [inhibitor, partial curve, poor fit] | 
COCCSc1ccccc1C(=O)N1CCCC1 | inconclusive: 31.6 µM [inhibitor, partial curve] | 
CO[C@H]1COC(=O)CCC[C@H](C)[C@@H](OC)COC(=O)C/C=C\[C@@H]1C |  | inactive: 1.9% [at 11.4 µM]
Fc1cccc(-c2cc3nc4c(c(N5CCC6(CC5)OCCO6)n3n2)CCCC4)c1 | inconclusive: 39.8 µM [inhibitor, single point] | 
O=C(CCc1nc(-c2ccccc2F)no1)NC1CCCCC1 | inactive | 
Cc1nc(NCCO)c2nc(-c3ccccc3)n(CC3CCN(C)CC3)c2n1 | inconclusive: 25.1 µM [inhibitor, single point] | 
COCC(C)NC(=O)NC1(C(F)(F)F)Oc2ccc(Cl)cc2O1 (stereo not drawn) | inconclusive: 25.1 µM [inhibitor, single point] | 
O=C(CSc1nc2ccccc2s1)NC(=O)NCc1ccco1 | inconclusive: 31.6 µM [inhibitor, single point] | 
